Data published in PubChem BioAssay AID602310 (National Center for Advancing Translational Sciences (NCATS), 2012).
Hit rate of the full screen: of about 410,000 compounds, about 310 (0.076%) were called active. The inconclusive results got no clear call from the source; some entries with a clear call stand among them for comparison. Calls come from the whole dose curve; as a rule, active = well fitted curve in the direction sought with a large enough effect; inconclusive = small, poorly fitted or top-dose-only effect; inactive = flat fitted curve, though single readings scatter. Potencies of inconclusive entries are doubtful fits and often do not repeat.

Molecular target: DNA dC->dU-editing enzyme APOBEC-3G (Homo sapiens) (UniProt Q9HC16)
Sequence of UniProt Q9HC16 (Q9HC16 whole entry, looked up): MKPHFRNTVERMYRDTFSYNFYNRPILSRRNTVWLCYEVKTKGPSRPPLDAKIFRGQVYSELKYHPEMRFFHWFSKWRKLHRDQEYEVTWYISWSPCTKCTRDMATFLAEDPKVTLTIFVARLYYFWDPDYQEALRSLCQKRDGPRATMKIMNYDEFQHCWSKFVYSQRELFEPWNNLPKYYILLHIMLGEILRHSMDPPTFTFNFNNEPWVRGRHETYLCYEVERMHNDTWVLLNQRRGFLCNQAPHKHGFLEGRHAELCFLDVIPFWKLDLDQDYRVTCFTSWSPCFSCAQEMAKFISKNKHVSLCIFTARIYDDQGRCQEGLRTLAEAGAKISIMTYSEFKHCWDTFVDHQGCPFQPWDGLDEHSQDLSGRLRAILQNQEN
Test: qHTS for Inhibitors of Vif-A3G Interactions: qHTS; note: nearly all actives have a fitted effect of over 60% in size;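 for activity, negative = active: hits raise eYFP signal because A3G escapes Vif-driven loss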
Conditions: HeLa A3G-eYFP + Vif (tagged APOBEC3G with the HIV-1 protein that degrades it), YFP fluorescence, overnight; series mostly up to 46.1 µM; activity, negative = active: at the top concentration
Outline: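 HeLa cells stably expressing Vif and C-terminally eYFP-tagged A3G, seeded overnight at 37 deg C, then exposed to compound by pintool overnight at 37 deg C. Rise in yellow fluorescence (Ex 488/Em 500-530, Acumen) marks blocked Vif-driven A3G degradation.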
% is set by controls: 0 for no effect and ±100 for the full control effect; potency is the fitted concentration of half-maximal effect; tags give direction and shape of the fitted curve.

| SMILES | Potency | activity, negative = active |
| --- | --- | --- |
| CC(CC(=O)Nc1ccc2c(c1)c(=O)n(C)n2-c1ccccc1)c1ccccc1 (stereo not drawn) | inconclusive: 1.58 µM [inhibitor, full curve] |  |
| COc1ccc(C(=O)c2ccc(C)cc2)c(OC)c1OC | inconclusive: 8.91 µM [inhibitor, partial curve] |  |
| COc1cccc(CC(=O)OCC(=O)NNC(=O)c2ccc(Br)cc2)c1 |  | inactive: 3.48% |
| CCOC(=O)c1ccc(NC(=O)c2cc3c(n(-c4ccc(C)cc4)c2=O)CC(C)(C)CC3=O)cc1 |  | inactive: 2.84% |
| O=C(COc1ccccc1-c1ccccc1)N/N=C/c1cccc2ccccc12 | inconclusive: 0.562 µM [inhibitor, full curve, poor fit] |  |
| O=C(CSc1nc(C2CC2)nc2ccccc12)Nc1ccc2c(c1)OCCO2 | inconclusive: 12.6 µM [inhibitor, partial curve, poor fit] |  |
| Cc1ccc(-c2nnc(Nc3ccc(O)cc3)c3ccccc23)cc1S(=O)(=O)NCC1CCCO1 (stereo not drawn) | inconclusive: 35.5 µM [inhibitor, single point] |  |
| CC1CCc2nc(-c3cc4ccc(O)cc4oc3=O)sc2C1 (stereo not drawn) | inconclusive: 2.82 µM [inhibitor, partial curve, poor fit] |  |
| Cc1nc(SCC(=O)Nc2ccc(F)cc2)c(C#N)c(C)c1CC(=O)c1ccc(Br)cc1 | inconclusive: 6.31 µM [inhibitor, single point] |  |
| N#Cc1c(C(F)(F)F)cc(-c2ccccc2)nc1SCc1nc(N)nc(N2CCOCC2)n1 | inconclusive: 15.8 µM [inhibitor, partial curve, poor fit] |  |
| COc1cc2c(-c3ccc4cc[nH]c4c3)c(-c3ccsc3)oc(=O)c2cc1OC |  | inactive: 0.691% |
| COc1ccc(NC(=O)/C(Cl)=C(/Cl)S(=O)Cc2ccc(Cl)cc2)cn1 (stereo not drawn) | inconclusive: 2.82 µM [inhibitor, partial curve, poor fit] |  |
| CCc1ccc2c(c1)NC(=O)C2(C)Cc1ccccc1Cl (stereo not drawn) | inconclusive: 12.6 µM [inhibitor, partial curve] |  |
| CCN(CC)c1ccc(NC(=O)CC2Oc3ccccc3NC2=O)c(C)c1 (stereo not drawn) | inconclusive: 15.8 µM [inhibitor, single point] |  |
| O=C(C1=C(O)C(=O)N(c2nc3ccc(Cl)cc3s2)C1c1ccco1)c1ccco1 (stereo not drawn) |  | inactive: -6.51% |
| CCc1ccc(NC(=O)c2ccc3c(c2)c(C)c(C)n3Cc2ccccc2)cc1 | inconclusive: 3.16 µM [inhibitor, full curve, poor fit] |  |
| CC(=O)Oc1ccc(C(=O)Nc2cccc(C(=O)c3ccc(C)c(C)c3)c2)cc1 |  | inactive: -9.38% |
| Cc1cccc(-n2ncc3c(Nc4c(C)cc(C)cc4C)ncnc32)c1 | inconclusive: 2.82 µM [inhibitor, single point] |  |
| C#CCOCCOCCOCCNc1nc(N2CCN(C(=O)CCCCCCCCCCNC(=O)Cn3cc(CCCCCN)nn3)CC2)nc(N2CCN(C(=O)CCCCCCCCCCNC(=O)[C@@H]([C@H](C)O)n3cc(C)nn3)CC2)n1 | inconclusive: 31.6 µM [inhibitor, single point] |  |
| Nc1ccc2nc(SCc3ccccc3F)sc2c1 |  | inactive: -6.29% |
| COc1cc(OC)c(OC)cc1/C=C1\CC(C)C/C(=C\c2cc(OC)c(OC)cc2OC)C1=O (stereo not drawn) | inconclusive: 15.8 µM [inhibitor, single point] |  |
| CCCOC(=O)c1cccc(Nc2nc(-c3cccnc3)nc3ccccc23)c1 | inconclusive: 20 µM [inhibitor, single point] |  |

| SMILES | Potency | activity, negative = active |
| --- | --- | --- |
| C/C(=N\Nc1nc2ccccc2[nH]1)c1ccc(C)o1 |  | inactive: -3.08% |
| COc1ccc([N+](=O)[O-])cc1NCc1ccccc1C | inconclusive: 7.94 µM [inhibitor, partial curve] |  |
| CN1CCN(CCCN2c3ccccc3Sc3ccc(C(F)(F)F)cc32)CC1 | inconclusive: 22.4 µM [inhibitor, single point] |  |
| CN(C)NC(=S)Nc1cccc(C(F)(F)F)c1 |  | inactive: -3.2% |
| CC(=O)Oc1ccc2c3c(c(=O)oc2c1)CCCC3 |  | inactive: -1.47% |
| CCCCC(=O)NNC(=O)c1c(O)c2ccccc2[nH]c1=O |  | inactive: -3.06% |
| COc1ccc(NC(=O)C2(C)Cc3c(-c4ccc5c(c4)OCO5)ccnc3O2)cc1OC (stereo not drawn) | inconclusive: 20 µM [inhibitor, single point] |  |
| COc1ccccc1-n1cnnc1SCC(=O)Nc1cc(C)on1 | inconclusive: 35.5 µM [inhibitor, single point] |  |
| OCC1(Cc2ccccc2C(F)(F)F)CCN(Cc2ccccc2)CC1 |  | inactive: 6.59% |
| Nc1ccc(-c2ccc(N)cc2C(F)(F)F)c(C(F)(F)F)c1 | inconclusive: 35.5 µM [inhibitor, single point] |  |
| Cc1ccc(-n2c(O)c(/C=N/Nc3ccc(S(=O)(=O)N4CCOCC4)cc3[N+](=O)[O-])c3ccccc3c2=O)c(C)c1 | inconclusive: 15.8 µM [inhibitor, single point] |  |
| O=C(NC(NC1CCS(=O)(=O)C1)C(=O)c1cccs1)c1ccccc1 (stereo not drawn) |  | inactive: 0.375% |
| CON(c1nc(Cl)nc(N(C)C)n1)S(=O)(=O)c1ccccc1Cl | inconclusive: 35.5 µM [inhibitor, single point] |  |
| CNC(=O)c1cc2c(=O)n3cc(C)ccc3nc2n(C(C)C)c1=N |  | inactive: 2.81% |
| COc1ccc(/C=C2/C(=O)N(c3ccccc3)N=C2C)cc1OC |  | inactive: 3.09% |
| COc1ccc(-n2c(SCCC#N)nnc2-c2cc(Cl)ccc2OC)cc1Cl | inconclusive: 22.4 µM [inhibitor, single point] |  |
| C=C(C(=O)c1ccccc1)C(NC(C)(C)C)c1ccccc1 (stereo not drawn) | inconclusive: 5.62 µM [inhibitor, full curve, poor fit] |  |
| Cc1cccc(OCC(=O)Nc2cc(-c3nc4cc(Cl)ccc4o3)ccc2C)c1 |  | inactive: -0.644% |
| Cc1cc(C)cc(NC(=O)c2sc3nc(-c4cc5ccccc5oc4=O)[nH]c(=O)c3c2C)c1 |  | inactive: 2.57% |
| C[C@H]1CN([C@@H](C)CO)C(=O)Cc2cc(NC(=O)CCC(F)(F)F)ccc2O[C@H]1CN(C)S(=O)(=O)c1ccc(Cl)cc1 | inconclusive: 1.12 µM [inhibitor, full curve, poor fit] |  |
| CN(CCC#N)c1ccc(C=C(C#N)c2ccc(Br)cc2)cc1 | inconclusive: 20 µM [inhibitor, single point] |  |
